Results on 19 molecules are retold here after the supplement of paper PMC12632987.

Whole data set: some 4,500 sequences, median “median log2 fold change of GCK-ALFA target abundance (FLAG IP / Myc IP barcode read proportion)” near 0.078, cut for the lowest 2% near -0.6. The list shows a part of the results.

First the molecules themselves.
B1: GBRAP_11_2747 (protein)
chain: KKEKLKEIAKAAEKLAKLLEELIKEGVDNEELLKEAEKALKELKKLVEEYGDESLKKLVEIIEEEFKKAKEDPENALKYLQNALAAARVLAGQVLLDIEE
B2: GBRAP_14_3864 (protein)
chain: MEELIKAVEKTAEETKAFAKELVPEHAEDVIAKIDELAEEIIEKIKKENLNKEEVAELAEEAAEELKKYMLEKGYVSEEEAAAFEAFLLSEFLLNLEEIE
B3: GBRAP_39_5674 (protein)
chain: EKEEEDEDVVSYLEGVAAKYLYETGLSLEEAYERAKKILKEYAKKHPELKELLEELIKIADEKGEEAKLVLIGVAKLIEEGTPDEEIKEKIEKIINYFKS
B4: GBRAP_160_4176 (protein)
chain: SEKLEEAEKEIREEFAEALEMVKGQSAAERAAIVAVTFGEIKLYLEEKGLLTDELEEEIDEIEDEAVATILANPDLTDEELAALLRESAERIIEALRKNS
B5: GBRAP_52_6303 (protein)
chain: MRERARALARAIVDAYLAGKEAEAEALLREFAETADDEEVRIFTEEFVRLIREARPEDLDAMARAVFAAADALEAAGKPEELVSDFLNETTRALYELELR
B6: GBRAP_160_4516 (protein)
chain: SPKLERIEKLVEEARERIIEVIDEGDVEAAITVAAVEFGEVIMEIAEDESMSDEAEDAAAEIRDKLVEELKKAKDASKEEKKKIVEEKSKELIEKLKKLS
B7: GBRAP_128_3479 (protein)
chain: SVEEVVKETRELMEKIKNSSLEEVKKLAEELVALLGSADEEAREAATEVIIEMLPELSVEKLEILADVLREKRPELDPFAATQAAEIEIEALMEAEEKEE
B8: GBRAP_184_5031 (protein)
chain: SVIERTIKADNLEELEAKLEKLKEEVKGSKADLIVTLDIKNPTEEMIKTALKRLGEMKKNGDVSSVTVGFARLLSEELIDVALKTADEEGVKVVLPISEE
B9: GBRAP_160_4720 (protein)
chain: KEKIKKFAEEALKELLKAVEDSEGLSKEEAEALFKGAAGEILMDAFEDPFFTDEMEDVVDEILDELVEELVENYDASLEEKKEIVKEKIKELEEKLLKLA
B10: GBRAP_14_3885 (protein)
chain: SEELEKLLAEALKEFAEAIAKLKAAGEEERAAAIEAELAARTAAAEAAGDLAALAKAAGEAAARAEAEVLLLVEGVSEAEAEAYRRTEIANFEYEVDELE
B11: GBRAP_160_4126 (protein)
chain: KEEDIKTLKDSAEDLEATLKEIDTLTPAQAAVLAEVTLYEAALDMDEQNGKFEDLEKAAVAAADTIRATAATDPAAAKATAKAQLTAAAKAFKDAAKKLE
B12: GBRAP_160_4220 (protein)
chain: DETIEKIVKIFREEFLEAVELIKGESEEERKVILDVAVGRVILEVDSLEEVTDEMEEVVDEKAEETAEELLKLKNASEEERKKLVEEKAKELEEELKKLA
B13: GBRAP_184_5224 (protein)
chain: KLLNRAVEAKTAEELIEKSEKVVKEAEKEGVELNLVVIAEDLSVEEVEKVAKHLKKLKDEGKIKDAILVVENPKSEEEIDRLVAIADKNGIKLVLALSEE
B14: GBRAP_166_4904 (protein)
chain: SLEEKIKELKKKIEELIEKYKEADEEERLELLIEIGELLRELKELGVPREELLALARRALEAAKEAGDSVRVAAGIIAEVADFDEEERDELDAIADEVAA
B15: GBRAP_52_6095 (protein)
chain: SMEKIEKYADEILKAALAGDVEKVTALLLEMVKELSDEEVLETLKLFAEKASELPDEELEKVTEVVIEALDKVAEETGKDELMDEAEAYLAAKAYEKLQK
B16: GBRAP_52_5929 (protein)
chain: MREEARELAERVLEAAEAGDEERLRELLREIVEELDDEEIELVIDELAELTIERGPEYYDLFADIMDLLEDEVEKAGRDVERVQYAIARAAGRMYDALQA
B17: GBRAP_53_6403 (protein)
chain: AAARIAALKAEARALTDAAAAADDATRAALVAEIGAILAELKAAGMPDEEIEALAREIAERLRAAGAPDSHLVALAQTLAELGLDEATAAVGELLVEDLE
B18: GBRAP_184_5144 (protein)
chain: KVLRVYIEAKTVEEAIKQAKKAFEEAKAAGAKLSLFVELENATVEEVRELAEELKKLVEEYGLKDAQVTLVVEADEEEADKIIEEAEKEGIRVVVALEEE
B19: GBRAP_160_4554 (protein)
chain: SAEQEKAIKDAEEERDFVLEVVEEESNEEARIVAIGEFGSFLMEVFLSGKFSDELEDKLGEIDDELERELEEAVDGSKEEVREVIERHFDEAIELLKESE

Chain of GABARAP, O95166 (O95166 whole entry, the tested form may be a part): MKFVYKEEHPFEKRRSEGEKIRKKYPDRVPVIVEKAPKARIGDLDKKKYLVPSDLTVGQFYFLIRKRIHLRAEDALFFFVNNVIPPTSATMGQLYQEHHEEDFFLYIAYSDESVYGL

The assay deals with GABARAP, O95166. Nature of the assay: median log2 fold change of GCK-ALFA target abundance (FLAG IP / Myc IP barcode read proportion) (log2 ratio); each designed protein is fused to an ALFA-tag nanobody in HEK293 cells to bring the named protein to FLAG-tagged glucokinase (GCK); Myc marks an untargeted standard; higher = target protein stabilised (more abundant). As to conditions: target protein: 3xFLAG-MCP-GCK-ALFA reporter; HEK293 landing pad (RPLP). In a few lines:
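Binders fused to an ALFA nanobody were recombined as a library into HEK293 landing-pad cells, which were induced with 2 μg mL^−1 doxycycline and then transfected to express a FLAG-tagged target and a Myc-tagged standard. After 48 h, circular RNA barcodes recovered by anti-FLAG and anti-Myc immunoprecipitation of lysates were reverse transcribed, amplified and sequenced. Each binder's target abundance is the median log2 ratio of FLAG to Myc barcode read proportions, from barcodes present at ≥10^−7 in both replicates, binders carrying ≥3 barcodes per replicate, a 10^−6 pseudocount and pooled replicates.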
Turning to B1, the “median log2 fold change” value is -0.119.
Then B2, with -0.114.
In the case of B3, the “median log2 fold change” value was found to be 0.813.
Turning to B4, the “median log2 fold change” value was -0.137.
As to B5, the “median log2 fold change” value turned out to be 0.0469.
As for B6, the “median log2 fold change” value amounted to 0.404.
For B7, the “median log2 fold change” value is 0.0244.
Take B8: the “median log2 fold change” value was found to be 0.0419.
Regarding B9, the “median log2 fold change” value was -0.317.
For B10, the “median log2 fold change” value came out at 0.266.
Then B11, with 0.22; and B12, with -0.299.
For the molecule B13, the “median log2 fold change” value is 0.154.
B14: the “median log2 fold change” value is 0.692.
The result for B15 reads 0.276; that for B16, -0.453.
Then B17, with 0.221; and B18, with 0.112.
Consider B19, for which the “median log2 fold change” value was -0.237.
